# This is one part of the list.
# How the values were obtained:
# [1] = test system: HSkMC (human skeletal muscle cells); assay: cytotoxicity call (relative viability < 0.9); conditions: 10 µM
# [2] = test system: HepG2; assay: cytotoxicity call (relative viability < 0.9); conditions: 10 µM
# [3] = test system: S. aureus RN4220; assay: growth inhibition call (relative growth <= 0.2); conditions: 50 µM
Compound,cytotoxicity call [1],cytotoxicity call [2],growth inhibition call [3]
Cc1ccc(S(=O)(=O)N(C)C[C@H]2OCCCC[C@@H](C)Oc3ccc(NS(C)(=O)=O)cc3C(=O)N([C@@H](C)CO)C[C@H]2C)cc1,inactive,inactive,inactive
COc1ccc([Si](C)(C)[C@H]2[C@H](CCO)O[C@@]3(C(=O)N(Cc4ccc(N5CCCCC5=O)cc4)c4ccccc43)[C@@H]2C)cc1,inactive,inactive,inactive
COC(=O)c1cn(-c2cccc(N)c2)nn1,inactive,inactive,inactive
CNC(=O)Cn1c(=O)c2c(N3CCN(C(=O)C4CC4)CC3)ccnc2n(C)c1=O,inactive,inactive,inactive
CNC[C@@H](O)Cn1cc(C)c(C(C)=O)c1C,inactive,inactive,inactive
C[C@@H]1CN([C@@H](C)CO)C(=O)c2cc(NC(=O)Cc3ccccc3)ccc2O[C@@H](C)CCCCO[C@H]1CN(C)Cc1ccccc1,inactive,inactive,inactive
C[C@H]1CN([C@@H](C)CO)C(=O)c2cc(-c3cccnc3)cnc2O[C@@H]1CN(C)C(=O)Nc1ccc2c(c1)OCO2,inactive,inactive,inactive
C[C@@H]1CCCCO[C@H](CN(C)C(=O)Nc2ccc(F)cc2)[C@@H](C)CN([C@H](C)CO)C(=O)c2cc(NC(=O)Nc3cccc4ccccc34)ccc2O1,inactive,inactive,inactive
O=C(C[C@@H]1CC[C@H]2[C@@H](COC[C@H](O)CN2S(=O)(=O)c2ccc(Cl)cc2)O1)NCCN1CCCCC1,inactive,inactive,inactive
N/N=C(\C(=O)O)c1ccccc1N,inactive,inactive,inactive
O=C(N/N=C/c1ccc(CO)o1)c1ccccn1,inactive,inactive,inactive
COc1ccc(NC(=O)N(C)C[C@H]2OCCCC[C@H](C)Oc3ccc(NS(=O)(=O)c4ccc(F)cc4)cc3C(=O)N([C@@H](C)CO)C[C@@H]2C)cc1,inactive,inactive,inactive
C[C@H]1CN([C@@H](C)CO)C(=O)c2cc(NS(=O)(=O)c3cccs3)ccc2O[C@@H]1CN(C)S(=O)(=O)c1cccs1,inactive,inactive,inactive
C[C@@H]1CCCCO[C@@H](CN(C)C(=O)NC2CCCCC2)[C@@H](C)CN([C@@H](C)CO)C(=O)c2cc(NC(=O)Nc3ccc(C(F)(F)F)cc3)ccc2O1,inactive,inactive,inactive
CN1C(=O)c2cc(NC(=O)Cc3cccs3)ccc2OC[C@H]2O[C@H](CC(=O)NCCCN3CCOCC3)CC[C@H]21,inactive,inactive,inactive
CCCC(=O)Nc1ncnc2c1ncn2C1OC2COP(=O)([O-])OC2C1OC(=O)CCC.[Na+] (stereo unspecified),inactive,inactive,inactive
COC(=O)C[C@H]1CC[C@@H]2[C@H](COC[C@H](O)CN2S(=O)(=O)c2cn(C)cn2)O1,inactive,inactive,inactive
CN(C)CCc1cc(Br)c(OCCCNC(=O)/C=C/c2cc(Br)c(OCCN3CCCCC3)c(Br)c2)c(Br)c1,inactive,active,inactive
Cc1c(O)c(=O)ccn1C,inactive,inactive,inactive
C[C@@H]1CCCCO[C@@H](CN(C)CC2CCCCC2)[C@@H](C)CN([C@H](C)CO)C(=O)c2cc(N(C)C)ccc2O1,inactive,inactive,inactive
C[C@H](CO)N1C[C@H](C)[C@@H](CN(C)C(=O)CN2CCOCC2)Oc2ncc(C3=CCCCC3)cc2C1=O,inactive,inactive,inactive
NC(=O)c1cc[n+](CC2=C(C(=O)[O-])N3C(=O)C(NC(=O)C(c4ccccc4)S(=O)(=O)[O-])C3SC2)cc1.[Na+] (stereo unspecified),inactive,inactive,inactive
COC1=CC(C)C2CC3OC(=O)CC4C(C)=C(OC)C(=O)C(C2(C)C1=O)C34C (stereo unspecified),inactive,inactive,inactive
C[C@H]1CN([C@@H](C)CO)C(=O)c2cc(NC(=O)CCN3CCOCC3)ccc2O[C@H]1CN(C)C(=O)Nc1ccccc1,inactive,inactive,inactive
CN1CCN(C(=O)C[C@@H]2CC[C@@H]3[C@H](COC[C@H](O)CN3CC3CCCC3)O2)CC1,inactive,inactive,inactive
C[C@H](CO)N1C[C@H](C)[C@H](CN(C)Cc2ccc(C(=O)O)cc2)Oc2ccc(NC(=O)Nc3cccc4ccccc34)cc2C1=O,inactive,inactive,inactive
Cc1noc(C)c1S(=O)(=O)N(C)C[C@H]1OCCCC[C@H](C)Oc2ccc(NS(C)(=O)=O)cc2C(=O)N([C@H](C)CO)C[C@H]1C,inactive,inactive,inactive
